# Assay results reported in PMC4336329 (PLoS ONE, 2015).
# Screen size: about 310,000 compounds; about 2,200 (0.71%) showed an effect of 50% or more. Effects have a minus sign here. The list shows a part of the results.
# Target: human ether-à-go-go-related gene (hERG) potassium channel (human, UniProt Q12809)
# Assay: primary screen, population patch clamp on CHO cells stably expressing hERG
# Sequence of human ether-à-go-go-related gene (hERG) potassium channel (Q12809 whole entry, looked up): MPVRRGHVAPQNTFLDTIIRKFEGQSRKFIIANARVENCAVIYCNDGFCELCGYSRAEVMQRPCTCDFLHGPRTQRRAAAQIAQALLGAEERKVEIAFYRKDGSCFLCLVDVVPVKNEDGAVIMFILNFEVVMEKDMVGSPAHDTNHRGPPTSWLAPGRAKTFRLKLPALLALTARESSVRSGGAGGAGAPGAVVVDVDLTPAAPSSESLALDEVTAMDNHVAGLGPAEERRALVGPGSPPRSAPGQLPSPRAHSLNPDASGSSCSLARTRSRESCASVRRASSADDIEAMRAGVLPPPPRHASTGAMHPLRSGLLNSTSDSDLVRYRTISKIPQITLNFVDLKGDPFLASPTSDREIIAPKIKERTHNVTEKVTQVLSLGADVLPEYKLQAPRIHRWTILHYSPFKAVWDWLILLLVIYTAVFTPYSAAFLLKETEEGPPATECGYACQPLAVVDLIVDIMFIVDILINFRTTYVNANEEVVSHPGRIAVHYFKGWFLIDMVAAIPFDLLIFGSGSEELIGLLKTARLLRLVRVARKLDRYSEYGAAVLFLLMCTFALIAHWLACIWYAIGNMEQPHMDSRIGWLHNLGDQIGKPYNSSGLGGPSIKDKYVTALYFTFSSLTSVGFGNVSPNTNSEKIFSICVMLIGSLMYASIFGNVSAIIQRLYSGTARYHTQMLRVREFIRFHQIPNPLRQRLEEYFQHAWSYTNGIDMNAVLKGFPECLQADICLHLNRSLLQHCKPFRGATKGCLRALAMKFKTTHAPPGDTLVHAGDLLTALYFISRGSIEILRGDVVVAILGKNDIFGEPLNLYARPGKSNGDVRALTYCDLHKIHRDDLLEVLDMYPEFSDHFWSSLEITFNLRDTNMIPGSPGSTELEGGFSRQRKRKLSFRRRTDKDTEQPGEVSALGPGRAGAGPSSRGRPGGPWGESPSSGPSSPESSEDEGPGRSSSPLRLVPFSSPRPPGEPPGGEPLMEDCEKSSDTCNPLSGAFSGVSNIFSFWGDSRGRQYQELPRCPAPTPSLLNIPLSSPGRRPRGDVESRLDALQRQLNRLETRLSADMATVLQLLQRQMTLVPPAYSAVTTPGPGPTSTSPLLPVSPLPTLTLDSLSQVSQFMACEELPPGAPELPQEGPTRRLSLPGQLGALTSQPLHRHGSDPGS
row,SMILES,"hERG current change (%, negative = inhibition) at 1uM"
1,Cc1ccc(C(=S)NCS(=O)(=O)c2ccc(C)cc2)cc1,16.7%
2,CC1(C)Cc2c(sc(NC(=O)C(=O)N3CCCC3)c2C#N)CO1,11.2%
3,CC(C)(C)C(=O)N1CCC[C@H]1C(O)(c1ccccc1)c1ccccc1,2.91%
4,COc1ccc(-c2csc(NC(=O)c3ccc(S(=O)(=O)N4CCc5ccccc5C4)cc3)n2)cc1,2.55%
5,CC1CCN(c2ccc(S(=O)(=O)NC3=NCCCCC3)cc2[N+](=O)[O-])CC1,15%
6,COc1ccc2nc(C)cc(Nc3ccc(C)cc3)c2c1.Cl,1.14%
7,CCCn1c(N)c(C(=O)CSc2nc3ncc(Cl)cc3[nH]2)c(=O)n(C)c1=O,9.02%
8,O=C(CN1CCN(c2ccccn2)CC1)Nc1nc2ccccc2s1,-16.9%
9,CCCN1CNC(=S)N(c2ccccc2OCC)C1,10.6%
10,CN(C)c1ccc(C(=O)OCC(=O)NCC2CCCO2)cc1 (centres unmarked),4.87%
11,CCN(CC)CCN(Cc1cc2cc3c(cc2[nH]c1=O)OCO3)C(=S)NCC1CCCO1 (centres unmarked),-2.45%
12,N#CCSc1n[nH]c2nc3c(c(=O)n12)C1(CCCCC1)Cc1ccccc1-3,14.7%
13,CCCn1nc2cc(C(=O)NCc3ccc4c(c3)OCO4)ccc2c1OCC,10.4%
14,CCOC(=O)c1cc(S(=O)(=O)N2CCC(C)CC2)cn1C,17.6%
15,CCc1cc(=O)oc2cc(C)cc(OC(C)C(=O)NCc3cccnc3)c12 (centres unmarked),5.71%
16,Cc1ccc(NC(=O)CN2C(=O)NC(Cc3ccccc3)C2=O)c(Br)c1 (centres unmarked),1.21%
17,CCCOc1ccc(-c2c(C(=O)N/N=C(\C)COc3ccccc3)nnn2-c2nonc2N)cc1,18.4%
18,Cn1cc(CN(CCO)Cc2cccs2)c(-c2cccc(Cl)c2)n1,4.15%
19,C=CCNC(=O)Cc1ccc(S(=O)(=O)N2CCOCC2)s1,12.1%

row,SMILES,"hERG current change (%, negative = inhibition) at 1uM"
1,CN(CC(=O)Nc1ccc(F)cc1)C(=O)CSc1nccn1C,-0.256%
2,Cc1ccc(OCC(COCc2ccccc2)NC(C)C)cc1.O=C(O)C(=O)O (centres unmarked),10.1%
3,O=C(N/N=C/c1c[nH]c2ccccc12)c1ccc(O)c(O)c1,9.27%
4,C#C[C@]1(O)CCC2C3CCC4=CC(=O)CC[C@@H]4C3CC[C@@]21C (some centres unmarked),5.92%
5,COCCn1c(=O)[nH]c2cc(C(=O)Nc3cccc(F)c3)ccc2c1=O,-1.16%
6,Cc1cccc(C)c1OCC(=O)NCc1nnc(SCC(=O)NC2CCCCC2)n1C,14.2%
7,C=CCOc1ccccc1CNCc1ccc(F)cc1.Cl,-1.43%
8,Cn1c(=O)[nH]c(=O)c2c1nc(N1CCN(c3ccccc3)CC1)n2CCSc1ncccn1,-6.57%
9,CC(CCc1ccccc1)N1CCN(Cc2ccccc2)CC1 (centres unmarked),-49.3%
10,CCOP(=O)(c1ccccc1)C(O)c1ccc(Br)cc1 (centres unmarked),-15.5%
11,O=C(NN1C(=O)C2C(C1=O)C1C=CC2C12CC2)c1ccncc1 (centres unmarked),9.22%
12,CC(C)CN1C(=O)N(c2ccc(Cl)cc2)C(C)(O)CC1(C)C (centres unmarked),21.6%
13,Cc1ccc(C2NC(=O)c3sc(=S)n(-c4ccccc4)c3N2)cc1 (centres unmarked),32.7%
14,COc1ccc(OCC(=O)NCCNC(=O)c2ccncc2)cc1,1.05%
15,CC(C)(C)NC(=O)CN(C(=O)c1ccc(CN2CCOCC2)o1)c1ccc2c(c1)OCCO2,10.1%
16,O=C(NCc1cccnc1)[C@@H]1CC=C[C@@H]2CCN(Cc3ccccc3)C(=O)[C@@H]21,12.3%
17,CC(C)C(C)NC(=O)COc1ccc(S(=O)(=O)N2CCOCC2)cc1[N+](=O)[O-] (centres unmarked),16%
18,Cc1nc2ccccc2c(=O)n1Cc1ccco1,10.7%
19,NC(=O)CC(NSc1ccccc1[N+](=O)[O-])C(=O)O (centres unmarked),-5.77%

row,SMILES,"hERG current change (%, negative = inhibition) at 1uM"
1,CCCCn1c(=O)c(C(=O)NCc2ccc(Cl)cc2)c(O)c2ccccc21,18.9%
2,CCn1c(COc2ccc(OC)cc2)nnc1SCC(=O)Nc1cc(OC)ccc1OC,4.05%
3,COC(=O)c1cc(CNC(=O)c2ccc(O)c(Cl)c2)ccc1OC,6.89%
4,O=C(NCc1ccccn1)c1nc(Cn2ccc([N+](=O)[O-])n2)no1,11.2%
5,CC(C)n1cc(CN2CCC(n3nccc3NC(=O)CCCc3ccccc3)CC2)cn1,-0.529%
6,CCOC(=O)C1CCN(C(=O)/C(=C/c2ccccc2)NC(=O)c2ccccc2)CC1,-3.18%
7,CCc1ccc2[nH]c(=O)c(C(c3nnnn3CC3CCCO3)N3CCCc4ccccc43)cc2c1 (centres unmarked),19.9%
8,Cc1cc(OCC(=O)Nc2ccc(N3CCN(C)CC3)cc2)ccc1Cl,2.28%
9,Cl.O=C(NCCCn1ccnc1)c1ccc(Br)cc1,0.254%
10,NC(=O)N/N=C/c1ccc(N2CCOCC2)s1,-1.89%
11,COc1ccc(C(=O)c2c3ccc(OC)cc3[n+]([O-])n2CCCC(N)=O)cc1,5.88%
12,CCOCCCNC(=O)c1ccc2c(=O)n(Cc3ccc(OC)cc3)c(=O)[nH]c2c1,23.2%
13,CCOc1ccc(NC(=O)C2CCCN(S(=O)(=O)c3c(C)noc3C)C2)cc1 (centres unmarked),12.2%
14,O=C(CN(Cc1cccs1)C(=O)CCC(=O)Nc1ccccn1)NCc1ccccc1,7.02%
15,Cc1cc(C(=O)O)ccc1NCc1ccncc1,15.2%
16,O=C(Cn1cnc2c(nnn2Cc2ccc(Cl)cc2)c1=O)NCc1ccco1,13.5%
17,CC(=O)NCC(=O)N(C)C(C(=O)Nc1ccc2c(c1)OCCO2)c1ccc(C)cc1 (centres unmarked),8.77%
18,CN(C)c1cccc2c1c(NC(=O)Nc1ccc(Cl)cc1Cl)nn2C,3.13%
